Reference: PubChem BioAssay AID1919015 (Molecular Pharmacology Branch, DTP, NCI, 2023)
Certain results were filed several times, with different values. The list is limited to them. An entry can have further records. Values given together are repeats across runs, samples, wells, individuals or studies. Additions like (4×) give the number of equal values in this list.

Test system: OVCAR-5 complex spheroids with HUVEC/MSC, viability, % test/control
Test: Anticancer human tumor OVCAR-5 cell line growth inhibition [AhR];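 note: spheroids exposed to compounds for 7 days; 100% = DMSO vehicle control wells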
Conditions: compound alone 10 µM; stronger effect = lower value
Excerpt: Multicellular complex tumor spheroid response to aryl hydrocarbon receptor antagonists in combination with a variety of drugs and investigational agents in selected tumor cell lines
The current study was undertaken to assess response to aryl hydrocarbon receptor antagonists in combination with standard-of-care drugs and investigational agents in solid tumor complex spheroid models. Complex spheroids include a stromal component modeled by human endothelial cells (HUVEC) and fibroblasts modeled by human mesenchymal stem cells (MSCs). The concentration ranges selected for each drug and investigational agent were based upon clinically achievable concentrations if the clinical Cmax of the agent was known.
Compounds. […] If the clinical Cmax for an agent had not been determined, the highest concentration tested was 10 microM (Table 1). […]

Structure (SMILES): Cc1cncc(-c2nc(NCCc3c[nH]c4ccccc34)c3ncn(C(C)C)c3n2)c1
- viability, T/C: 29.3, 14.6, 11.2, 16 (2×), 15.2, 21.2, 12.8, 11.8, 10.6, 14.1, 17.4, 15.6, 17.6, 18.6, 25.2, 4.2, 12.5, 18.7, 20.6, 22%
